The text below walks through data of article PMC7765025.

In assay [1] the target is T1, GST-fused TXNIP (pEBG-TXNIP) (UniProt Q9H3M7).
T1 sequence: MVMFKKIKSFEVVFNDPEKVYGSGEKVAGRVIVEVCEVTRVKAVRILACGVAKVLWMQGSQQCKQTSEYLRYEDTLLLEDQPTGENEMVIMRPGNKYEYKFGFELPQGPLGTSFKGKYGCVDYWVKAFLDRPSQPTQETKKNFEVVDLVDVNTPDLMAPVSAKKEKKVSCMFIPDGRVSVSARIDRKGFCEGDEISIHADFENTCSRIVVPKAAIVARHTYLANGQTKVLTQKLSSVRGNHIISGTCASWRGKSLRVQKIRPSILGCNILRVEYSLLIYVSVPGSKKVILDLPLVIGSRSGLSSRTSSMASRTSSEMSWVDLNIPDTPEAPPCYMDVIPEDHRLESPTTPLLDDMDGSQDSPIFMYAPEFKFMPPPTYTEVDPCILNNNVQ
The experiment in a line: pull-down; GST pull-down from lysates (RIPA buffer) of transiently cotransfected HEK 293 cells; glutathione Sepharose 4B, 3 h at 4 °C, washed four times; blots with α-FLAG and α-GST.

The target of assay [2] is T2, purified recombinant TAK1 (UniProt O43318).
T2 sequence: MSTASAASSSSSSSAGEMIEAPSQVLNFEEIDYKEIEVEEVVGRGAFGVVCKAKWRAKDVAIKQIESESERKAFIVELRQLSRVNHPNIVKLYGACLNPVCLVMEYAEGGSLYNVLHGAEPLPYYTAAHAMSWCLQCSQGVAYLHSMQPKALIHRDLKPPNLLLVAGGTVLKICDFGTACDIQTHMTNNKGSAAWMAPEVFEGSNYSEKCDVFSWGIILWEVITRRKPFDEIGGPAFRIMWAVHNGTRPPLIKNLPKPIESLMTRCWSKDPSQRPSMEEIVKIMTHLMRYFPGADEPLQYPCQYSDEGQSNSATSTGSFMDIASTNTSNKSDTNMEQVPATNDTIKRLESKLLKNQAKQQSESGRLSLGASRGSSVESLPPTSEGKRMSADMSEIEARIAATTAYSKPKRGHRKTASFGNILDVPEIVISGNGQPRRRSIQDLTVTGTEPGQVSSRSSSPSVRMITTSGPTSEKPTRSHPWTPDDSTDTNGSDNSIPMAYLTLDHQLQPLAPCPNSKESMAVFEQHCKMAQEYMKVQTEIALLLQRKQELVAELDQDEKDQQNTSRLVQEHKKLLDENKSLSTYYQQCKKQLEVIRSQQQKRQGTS
The experiment in a line: pull-down; purified recombinant TXNIP and TAK1 proteins (Figure S3A; Figure S3 is titled GST pull-down assays); which protein was held is not told; both purified.

The target in assay [3] is T3, endogenous TAK1 of NK92 cells (human (endogenous in NK92)) (UniProt O43318).
T3 sequence: T2 sequence
Kind of assay: co-IP; endogenous proteins in NK92 lysates (RIPA buffer), immunoprecipitated with TAK1 antibody and protein G agarose; cells with or without Pam3CSK4 (1 µg/mL) for 1 h.

The target of assay [4] is T4, GST-fused TAK1 (pEBG-TAK1) (human) (UniProt O43318).
T4 sequence: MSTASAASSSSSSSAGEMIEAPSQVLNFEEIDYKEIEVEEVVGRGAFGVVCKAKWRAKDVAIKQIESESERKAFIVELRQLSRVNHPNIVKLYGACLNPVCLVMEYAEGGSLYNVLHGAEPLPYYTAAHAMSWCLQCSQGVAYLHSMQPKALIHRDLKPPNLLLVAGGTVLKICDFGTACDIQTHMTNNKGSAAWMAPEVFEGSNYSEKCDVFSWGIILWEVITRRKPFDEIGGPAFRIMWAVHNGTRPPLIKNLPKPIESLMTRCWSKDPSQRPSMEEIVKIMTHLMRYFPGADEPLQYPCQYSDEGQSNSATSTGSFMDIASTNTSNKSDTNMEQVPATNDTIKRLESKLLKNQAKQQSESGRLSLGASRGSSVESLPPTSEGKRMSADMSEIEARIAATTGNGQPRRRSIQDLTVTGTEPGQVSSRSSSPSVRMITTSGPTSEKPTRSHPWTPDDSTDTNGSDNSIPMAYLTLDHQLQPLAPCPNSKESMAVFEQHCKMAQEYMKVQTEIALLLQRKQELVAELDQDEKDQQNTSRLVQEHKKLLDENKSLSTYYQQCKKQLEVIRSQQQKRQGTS
Kind of assay: pull-down; GST pull-down from lysates (RIPA buffer) of transiently cotransfected HEK 293 cells; glutathione Sepharose 4B, 3 h at 4 °C, washed four times; blots with α-FLAG and α-GST.

Assay [5] deals with T5, TAK1 (K63W), kinase dead form (pEBG-TAK1 (K63W)) (human) (UniProt O43318).
T5 sequence: T4 sequence with K63W
Described as above.

Assay [6] addresses T6, GST-fused TAK1 (35–291) (human) (UniProt O43318).
T6 sequence: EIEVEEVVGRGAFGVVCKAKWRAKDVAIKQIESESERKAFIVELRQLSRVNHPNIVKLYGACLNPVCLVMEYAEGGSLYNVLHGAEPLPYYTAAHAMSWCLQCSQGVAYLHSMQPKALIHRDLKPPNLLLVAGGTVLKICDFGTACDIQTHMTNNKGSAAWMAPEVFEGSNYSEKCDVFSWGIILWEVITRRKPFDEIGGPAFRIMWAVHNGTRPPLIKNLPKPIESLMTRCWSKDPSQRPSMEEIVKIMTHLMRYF
The description is as above.

Positions count from the first letter of the chain named. Results are given in words; binding and its absence hold for the method and conditions named. For part of these data: In cells and extracts the contact can be indirect. Some binding calls cover weakened binding; strength is not graded here. For part of these data: Where a sequence is shown, tags or fusion partners need not be part of it.

B1: FLAG-TAK1 (pFLAG-TAK1) (protein, UniProt O43318-2 1-579)
chain: T4 sequence
Regarding B1, in assay [1], the binding result is “binds”.

B2: purified recombinant TXNIP (protein, UniProt Q9H3M7 1-391)
chain: T1 sequence
In the case of B2, the binding result in assay [2] is “binds”.

B3: endogenous TXNIP of NK92 cells (protein, UniProt Q9H3M7 1-391)
chain: T1 sequence
Regarding B3, in assay [3], the binding result is “binds”.

B4: FLAG-tagged TXNIP (full) (protein, UniProt Q9H3M7 1-391)
chain: T1 sequence
Consider B4, for which the binding entry in assay [4], in assay [5] and in assay [6] was “binds” in each case.
